Laboratory results published in PubChem BioAssay AID1477 (National Center for Advancing Translational Sciences (NCATS), 2009).
Among all 230,000 compounds or so, fewer than 10 were called active. This list was built around the results that the source calls inconclusive (neither active nor inactive); the mix of calls is not that of the screen. Calls follow the shape of the dose curve; as a rule, active = well fitted curve in the direction sought with a large enough effect; inconclusive = small, poorly fitted or top-dose-only effect, or effect the other way, or another doubt; inactive = no such curve, though single readings can be large or run the other way. No potency is given beside an inconclusive call; the fits are too rough.

The compounds below were run against Runt-related transcription factor 1 (Homo sapiens) + Core-binding factor subunit beta (Homo sapiens) (UniProt Q01196+Q13951) (assay: qHTS Assay for Compounds Blocking the Interaction Between CBF-beta and RUNX1 for the Treatment of Acute Myeloid Leukemia). Settings: AlphaScreen CBFb-His/RUNX1-biotin binding, biochemical; activity, negative = inhibition: at 59.8 µM (top of the series) unless noted.
Chain of UniProt Q01196 (Q01196 whole entry, looked up): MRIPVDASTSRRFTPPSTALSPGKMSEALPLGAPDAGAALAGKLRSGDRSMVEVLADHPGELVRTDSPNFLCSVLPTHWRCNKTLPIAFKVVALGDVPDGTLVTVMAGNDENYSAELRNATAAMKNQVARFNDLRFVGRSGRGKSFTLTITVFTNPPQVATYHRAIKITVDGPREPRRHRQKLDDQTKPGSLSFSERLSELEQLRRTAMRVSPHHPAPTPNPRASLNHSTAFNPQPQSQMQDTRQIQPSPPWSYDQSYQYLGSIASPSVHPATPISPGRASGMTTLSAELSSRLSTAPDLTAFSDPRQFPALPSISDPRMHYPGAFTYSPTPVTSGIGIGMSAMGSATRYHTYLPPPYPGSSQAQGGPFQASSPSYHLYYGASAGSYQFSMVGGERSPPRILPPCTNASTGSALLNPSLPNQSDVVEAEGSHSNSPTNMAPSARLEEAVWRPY
Chain of UniProt Q01196 (Q13951 whole entry, looked up): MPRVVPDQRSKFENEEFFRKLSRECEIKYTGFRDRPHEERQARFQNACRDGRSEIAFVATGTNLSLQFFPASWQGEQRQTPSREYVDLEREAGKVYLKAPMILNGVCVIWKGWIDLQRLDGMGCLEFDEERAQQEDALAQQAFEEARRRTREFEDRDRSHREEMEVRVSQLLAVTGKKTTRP
Procedure, shortened: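 AlphaScreen proximity signal reports loss of binding between His-tagged CBF-beta and biotin-labelled RUNX1, each at 30 nM. Proteins are pre-associated for 20 minutes, compounds added for 15 minutes, then beads for 90 minutes, all at ambient temperature.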
For activity, negative = inhibition in this document: % of control where 0% means no effect.

Row | SMILES | Potency | activity, negative = inhibition
1 | CC/C=C\C/C=C\C/C=C\CCCCCCCC(=O)O | inconclusive [inhibitor, single point] | 
2 | Cc1ccccc1Cc1ccc(Cl)nn1 | inconclusive [inhibitor, single point] | 
3 | CC1CCC2C(=O)N3C(CCC(C)[C@@H]3c3ccc(Br)cc3)C(=O)N2C1c1ccc(Br)cc1 (stereo not given in full) |  | inactive: -2.4% [at 13.1 µM]
4 | O=S(=O)(O/N=C1\CCCc2ccccc21)c1ccc(Cl)cc1 | inconclusive [activator, single point] | 
5 | Cc1cccc(NC(=O)Cn2c(O)c(N=NC(=O)c3ccccc3O)c3ccccc32)c1 | inconclusive [inhibitor, single point] | 
6 | CN(C(=O)Oc1ccc(C(=O)c2ccc(Cl)cc2)cc1)c1ccccc1 | inconclusive [activator, partial curve] | 
7 | O=[N+]([O-])c1ccc2c(c1)N([O-])C1(CCCCC1)[N+]2=O | inconclusive [inhibitor, single point] | 
8 | Cc1ccc(-c2cc3ccccc3nc2N2CCCC2)cc1 | inconclusive [activator, single point] | 
9 | Cc1cc(C)c(-n2nnnc2SCC(=O)c2cccs2)c(C)c1 |  | inactive: 9.53%
10 | CCOc1cc(CNc2ccc(N3CCOCC3)cc2)cc(Br)c1OCC | inconclusive [inhibitor, partial curve] | 
11 | CCc1ccc(-c2nnn(Cc3nc4ccccc4s3)n2)cc1 | inconclusive [activator, single point] | 
12 | CC(C)Nc1nc(Oc2ccc(Cl)cc2Cl)cc(C(F)(F)F)n1 |  | inactive: 17.1%
13 | CC(C)(C)NC(=O)COC(=O)c1ccccc1C(=O)c1ccccc1 |  | inactive: 1.98%
14 | O=C1CCCC(O)=C1Sc1ccccc1C(=O)O | inconclusive [inhibitor, single point] | 
15 | COc1ccc(N2CCN(CC(=O)Nc3nc4c(s3)CC(C)CC4)CC2)cc1 (stereo not given) | inconclusive [inhibitor, single point] | 
16 | Cc1nc(SCCCSc2n[nH]c(C)n2)n[nH]1 |  | inactive: -0.853%
17 | Cc1cc(C2=NNC(=NCCc3ccccc3)SC2)c(C)n1-c1c(C)n(C)n(-c2ccccc2)c1=O | inconclusive [inhibitor, single point] | 
18 | CC(C)C(NS(=O)(=O)c1c(Cl)cccc1Cl)C(=O)OCC(=O)c1c[nH]c2ccccc12 (stereo not given) | inconclusive [activator, single point] | 
19 | O=C(O)c1cccc(-n2cccc2/C=C\[N+](=O)[O-])c1 | inconclusive [inhibitor, single point] | 
20 | COc1ccc(-n2c(SCc3ccc([N+](=O)[O-])cc3)nnc2-c2ccc(C)cc2)cc1 | inconclusive [activator, single point] | 
21 | C=CCc1ccc(OC)cc1 | inconclusive [activator, full curve] | 
22 | COC(=O)c1ccc(CSc2nnnn2Cc2ccccc2)cc1 | inconclusive [activator, partial curve] | 
23 | Cc1c(Cl)cccc1NC(=S)NCc1ccccc1Cl |  | inactive: 3.06%

Row | SMILES | Potency | activity, negative = inhibition
24 | Cn1cc(C(N)=O)c2ccccc21 | inconclusive [activator, single point] | 
25 | COc1ccc(-n2c(COc3cccc4cccnc34)nnc2SCC(=O)O)cc1 | inconclusive [activator, partial curve] | 
26 | COc1ccccc1NS(=O)(=O)c1cc(NC(=O)c2ccncc2)ccc1N1CCCC1 | inconclusive [inhibitor, single point] | 
27 | CCN(CC)c1ccc(NC(=S)NC(=O)c2cccs2)cc1 | inconclusive [inhibitor, partial curve] | 
28 | CC1=Nc2ccccc2/C1=C/c1nc(-c2ccc(C)s2)oc1O |  | inactive: -17%
29 | Cc1ccccc1S(=O)(=O)NC1OC(=O)C(Oc2ccccc2)=C1Br (stereo not given) |  | inactive: 2.75%
30 | CC(NC(N)=O)C(=O)Nc1ccc(Cl)c(S(=O)(=O)Nc2ccc(Cl)cc2)c1 (stereo not given) | inconclusive [inhibitor, single point] | 
31 | CCOc1cc(NC(=S)NCC2CCCO2)c(OCC)cc1NC(=O)c1ccc(OC)cc1 (stereo not given) | inconclusive [inhibitor, single point] | 
32 | C/C(=N\NC(=O)c1ccc(O)cc1)c1ccc(N2CCOCC2)cc1 |  | inactive: 17.5%
33 | CCN1CCN(C(=O)c2ccc3c(=O)n(C4CCCC4)c(=S)[nH]c3c2)CC1 |  | inactive: 4.03%
34 | Oc1cc(O)cc(/C=C/c2ccc(O)c(O)c2)c1 | inconclusive [activator, single point] | 
35 | CC1CCN(C(=S)Nc2ccc(F)cc2)CC1 |  | inactive: -0.184%
36 | O=C(Nc1cc(S(=O)(=O)Nc2ccccc2Cl)ccc1O)c1sc2cc(Cl)ccc2c1Cl | inconclusive [inhibitor, partial curve, poor fit] | 
37 | CCOC(=O)c1sc2nccc(N(C)C)c2c1N=CNOCc1c(F)cccc1Cl | inconclusive [activator, partial curve] | 
38 | CCC(C)(C)n1nnnc1C(c1cc(OC)ccc1OC)N1CCC(C(N)=O)CC1 (stereo not given) | inconclusive [inhibitor, single point] | 
39 | CC(C)(S)[C@H](N)C(=O)O | inconclusive [activator, full curve, poor fit] | 
40 | O=C1NC(=O)C2(Cc3ccccc3N3CCCC32)C(=O)N1Cc1ccccc1 (stereo not given) |  | inactive: -7.87%
41 | N#Cc1ccc(-c2ccco2)nc1SCc1ccccc1 | inconclusive [activator, single point] | 
42 | O=C(Cc1ccccc1[N+](=O)[O-])NCc1ccc(Cl)cc1 |  | inactive: 4.47%
43 | NC(=S)NNc1ccnc2cc(Cl)ccc12 |  | inactive: -11.3%
44 | COc1ccc(/C=C2\SC(=O)N(CCNC(=O)CCS(=O)(=O)c3ccc(C)cc3)C2=O)cc1 | inconclusive [inhibitor, single point] | 
45 | C(=C/c1nccc2c1[nH]c1ccccc12)/c1ccc2c(c1)OCO2 | inconclusive [activator, partial curve] | 
